According to PubChem BioAssay AID686978 (National Center for Advancing Translational Sciences (NCATS), 2013):
“And” between values parts separate entries of the source, which are not always exact repeats. Equal values may be shown once. Out of some 420,000 compounds screened, about 64,000 (15%) were called active. This list was built around the results that the source calls inconclusive (neither active nor inactive); the mix of calls is not that of the screen. The call rests on the fitted dose curve; in most records, active means well fitted inhibition curve with a large enough effect; inconclusive means small, poorly fitted or top-dose-only effect; inactive means flat fitted curve, though single readings scatter. Potencies of inconclusive entries are doubtful fits and often do not repeat.

Assay: qHTS for Inhibitors of human tyrosyl-DNA phosphodiesterase 1 (TDP1): qHTS in cells in absence of CPT; further: nearly all actives have a fitted effect of over 55% in size
Conditions: DT40 Tdp1-/- hTDP1 cells, no CPT, ATP luminescence, 48 h; activity change, negative = growth inhibition: at 46.2 µM (top of the series) unless noted
Procedure, shortened: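 Seeded 400 DT40-hTDP1 cells/well (vehicle DMSO, no 20 nM CPT); pinned compounds; ≥48 hr at 37 °C; CellTiter-Glo luminescence as viability measure.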
On the % scale 0 is the no-effect control and ±100 the full control effect; potency means the concentration at half of the fitted maximal effect; tags describe the fitted curve by direction and shape.

| Compound | Potency | activity change, negative = growth inhibition |
| --- | --- | --- |
| CCOC(=O)N1CCc2c(sc3c2c(=O)n(Cc2ccccc2)c(=O)n3Cc2ccccc2Cl)C1 | inconclusive: 20.6 µM [inhibitor, single point] |  |
| O=S(=O)(NC1CCN(Cc2ccccc2)CC1)c1ccc(Cl)cc1 |  | inconclusive: -38.3% [inhibitor] |
| O=C(Nc1ccc2c(c1)OCCO2)C(c1cc2ccccc2o1)N1CCN(c2ccc(C(F)(F)F)cn2)CC1 (stereo unspecified) | inconclusive: 16.4 µM [inhibitor, single point] |  |
| CN(CC(=O)Nc1ccc(F)c(F)c1F)C(=O)CC1CCCCC1 | inconclusive: 29.1 µM [inhibitor, single point] |  |
| COc1cccc(C(c2c(NC(=O)c3ccco3)sc(C)c2C)N2CCOCC2)c1 (stereo unspecified) | inconclusive: 25.9 µM [inhibitor, single point] |  |
| COc1ccc(CCNC(=O)c2cnn(-c3ccc(F)cc3)c2C2CCN(C(=O)OC(C)(C)C)CC2)c(OC)c1 | active: 13 µM |  |
| CCc1ccccc1NC(=O)N1CCc2c([nH]c3ccccc23)C1c1ccc(C)cc1 (stereo unspecified) | active: 14.6 µM |  |
| Cn1c(=O)n(CCc2ccccc2)c(=O)c2c1nc1n2CCN1Cc1ccco1 |  | inconclusive: -32.8% [inhibitor] |
| CCOc1ccc(C2=NNC(c3cccs3)=Nc3ccc(OC)cc32)cc1 | inactive |  |
| COc1cccc(N2CCN(C(=O)CN(C)S(=O)(=O)c3ccc4c(c3)CCC(=O)N4)CC2)c1 | active: 18.4 µM |  |
| CCOC(=O)c1c(-c2ccc(OC)cc2)csc1NC(=O)CCN1C(=O)c2ccccc2C1=O | inconclusive: 18.4 µM [inhibitor, single point] |  |
| CC1CCc2c(sc(NC(=O)C3c4ccccc4Oc4ccccc43)c2C(N)=O)C1 (stereo unspecified) | inconclusive: 10.3 µM [inhibitor, partial curve] |  |
| CCc1ccc(OCC(=O)N(Cc2ccc(C)o2)C2CCS(=O)(=O)C2)cc1 (stereo unspecified) | inconclusive: 29.1 µM [inhibitor, single point] |  |
| Cc1ccc(C2(C)NC(=O)N(CC(=O)Nc3cc(S(=O)(=O)N4CCOCC4)ccc3OC(C)C)C2=O)cc1 (stereo unspecified) | inconclusive: 29.1 µM [inhibitor, single point] |  |
| Cc1ccc(S(=O)(=O)N(CC(=O)NCCc2ccc(Cl)cc2)c2ccccc2C)cc1 | active: 13 µM |  |
| Cc1coc2c(C)c3oc(=O)c(CC(=O)NCCc4ccc(Cl)cc4)c(C)c3cc12 | inconclusive: 14.6 µM [inhibitor, single point] |  |
| CCCOc1ccc(-c2nn(-c3ccccc3)cc2/C=C2\SC(N)=NC2=O)cc1C | inconclusive: 29.1 µM [inhibitor, single point] |  |
| COc1cccc(-c2nc(-c3ccccc3)nc(N3CCN(C)CC3)c2C#N)c1 | inconclusive: 29.1 µM [inhibitor, single point] |  |
| O=C(CNC(=O)c1ccc(-c2ccccc2)cc1)OCc1c(Cl)cccc1Cl |  | inconclusive: -33.7% [inhibitor] |
| O=C(OCC(O)CN1CCCCC1)C12CC3CC(CC(C3)C1)C2 (stereo unspecified) | inactive |  |
| Cc1ccc(C)c(OCCC(=O)OCC(=O)N(C)c2c(N)n(Cc3ccccc3)c(=O)[nH]c2=O)c1 |  | inconclusive: -31.4% [inhibitor] |
| Cc1ccc2[nH]c(C(=O)N3CCCC(Nc4ccc(F)cc4)C3)cc2c1 (stereo unspecified) | inconclusive: 4.11 µM [inhibitor, partial curve] |  |

| Compound | Potency | activity change, negative = growth inhibition |
| --- | --- | --- |
| CN(C)CCP(=O)(c1ccccc1)c1ccccc1 | inconclusive: 10.3 µM [inhibitor, single point] |  |
| COc1ccc(CCNC(=O)c2cccnc2)cc1OC | inactive |  |
| CC(C)(C)n1nnnc1CN1CCN(C(c2ccccc2)c2ccccc2)CC1 | active: 18.4 µM |  |
| COc1ccccc1S(=O)(=O)c1ccccc1[N+](=O)[O-] | inactive |  |
| Cc1cccc(CSc2nc(-c3cccs3)ccc2C#N)c1 | inconclusive: 29.1 µM [inhibitor, single point] |  |
| O=C(COc1ccccc1F)Nc1nnc(SCc2cc(=O)c3ccccc3[nH]2)s1 | inconclusive: 11.6 µM [inhibitor, partial curve] |  |
| COc1ccc(CNC(=O)C2CCN(C(=O)[C@@H]3Cc4ccccc4CN3)CC2)cc1 | inconclusive: 29.1 µM [inhibitor, single point] |  |
| Cc1cccc(C(C)C)c1NC(=O)CN1C(=O)NC(Cc2ccccc2)C1=O (stereo unspecified) | inactive |  |
| OC[C@@H](O)[C@@H](O)[C@H](O)[C@@H](O)CO | inactive |  |
| COc1ccc(NC(=O)C2CCCN(S(=O)(=O)c3ccc4c(c3)oc(=O)n4C)C2)c(OC)c1 (stereo unspecified) | inconclusive: 16.4 µM [inhibitor, single point] and inconclusive: 13 µM [inhibitor, partial curve] |  |
| O=[N+]([O-])c1ccc(S(=O)(=O)N2CCSC2c2ccco2)cc1 (stereo unspecified) | inconclusive: 16.4 µM [inhibitor, single point] |  |
| COc1ccc(-c2cc(C(=O)Oc3ccc([N+](=O)[O-])cc3)c3ccccc3n2)cc1 | inconclusive: 29.1 µM [inhibitor, single point] |  |
| COc1cc(OC)cc(C(=O)Nc2cccc(NC(=O)c3cc(OC)cc(OC)c3)n2)c1 | inconclusive: 16.4 µM [inhibitor, partial curve] |  |
| C=CCc1c(C)nc2nc(SCC(=O)Nc3ccc(C)c(C)c3)nn2c1C | inactive |  |
| Cc1cccc(C)c1NC(=O)CCCN1CC(C)OC(C)C1 (stereo unspecified) | inactive |  |
| COc1ccc(/C(C)=N/NC(=O)c2nnn(-c3nonc3N)c2-c2cccs2)cc1OC | inactive |  |
| CCOc1ccc(-c2cc(C(=O)N/N=C(\C)c3cccnc3)c3ccccc3n2)c(OCC)c1 | inconclusive: 9.2 µM [inhibitor, partial curve] |  |
| S=C(Nc1cccc2ccccc12)Nc1cccc2ccccc12 | inconclusive: 7.31 µM [inhibitor, partial curve] |  |
| COc1ccc(C2CC(c3ccc(OC)c(OC)c3)=NN2S(C)(=O)=O)cc1 (stereo unspecified) | inconclusive: 18.4 µM [inhibitor, partial curve] |  |
| O=S(=O)(c1cccs1)N1CCN(CCOc2ccc(Cl)cc2)CC1 |  | inconclusive: -31.5% [inhibitor] |
| COc1cccc(-c2cnc3c(NC(C)=O)cc(-c4ccc(S(C)(=O)=O)cc4)cn23)c1 | active: 23.1 µM |  |
| Cc1ccc2c(COC(=O)c3ccc(C)c(C)c3)cc(=O)oc2c1 | inactive |  |

| Compound | Potency | activity change, negative = growth inhibition |
| --- | --- | --- |
| COc1ccc(CCNC(=O)COc2cc(O)c3c(c2)OC(C)(C)CC3=O)cc1OC | active: 18.4 µM |  |
| COc1cccc(N2CCN(C(=O)c3cccn3-c3nnc(N4CCCC4)s3)CC2)c1 | inconclusive: 20.6 µM [inhibitor, single point] |  |
| COCCCNC(=O)c1ccc(-n2c(-c3ccccc3)cc3c2CCC(C)C3)cc1 (stereo unspecified) | active: 16.4 µM |  |
| CCOC(=O)c1c(NC(=O)COC(=O)Cc2c[nH]c3ccccc23)sc(C(=O)N(C)C)c1C | inconclusive: 23.1 µM [inhibitor, single point] |  |
| Cc1ccccc1NC(=O)Cc1nc(COC(=O)CCc2ccccc2)cs1 | inconclusive: 23.1 µM [inhibitor, single point] |  |
| Cn1c(-c2ccc(Br)cc2)cnc1NCc1ccc(C#N)cc1 | inconclusive: 16.4 µM [inhibitor, single point] |  |
| CN(C)c1nc(N)nc(N(c2ccccc2)c2ccccc2)n1 | inconclusive: 29.1 µM [inhibitor, single point] |  |
| CCC(=O)Nc1cccc(C(=O)c2ccc(C)c(C)c2)c1 | active: 20.6 µM |  |
| COc1ccc(C(=O)N2CCn3c(C)ccc3C2C)cc1 (stereo unspecified) | inconclusive: 29.1 µM [inhibitor, single point] |  |
| O=C(OCC(=O)C12CC3CC(CC(C3)C1)C2)c1ccccc1O | inconclusive: 16.4 µM [inhibitor, single point] |  |
| CC(C)Oc1ccc(CSC(=N)N)cc1 | inactive |  |
| CCOC(=O)N1CCC(N(CCOC)C(=O)Nc2ccc(C)c(C)c2)CC1 | inconclusive: 29.1 µM [inhibitor, single point] |  |
| CC[C@]12c3[nH]c4ccccc4c3CCN1C(=O)C(CC(=O)NCc1cccc(C(F)(F)F)c1)C[C@@H]2C(=O)N1CCN(C(=O)c2ccco2)CC1 (stereo partly specified) | inconclusive: 16.4 µM [inhibitor, single point] |  |
| COc1ccccc1-n1c(=O)[nH]c2c(C(N)=O)nc(C3CCCCC3)nc21 |  | inconclusive: -33% [inhibitor] |
| COc1ccc(C(=O)CSc2nnc(-c3cc(C)on3)o2)cc1 | inconclusive: 18.4 µM [inhibitor, single point] |  |
| NC(=O)C1CCN(C2CC(=O)N(Cc3ccc(N4CCCC4=O)cc3)C2=O)CC1 (stereo unspecified) | inconclusive: 23.1 µM [inhibitor, single point] |  |
| CCOC(=O)CN(C(=O)CSc1nnc(COc2ccc(OC)cc2)n1CC)c1ccccc1 | inconclusive: 16.4 µM [inhibitor, partial curve] |  |
| Cc1cc(F)ccc1S(=O)(=O)N1CCCOC1CNC(=O)C(=O)NCCC1=CCCCC1 (stereo unspecified) | inconclusive: 23.1 µM [inhibitor, partial curve, poor fit] |  |
| Cc1cccc(C(=O)NNC(=O)c2csc(N3CCOCC3)n2)c1C | inactive |  |
| COc1ccc(NC(=O)C(c2cc3ccccc3o2)n2c(=O)c(-c3cc4ccccc4[nH]3)nc3ccccc32)cc1 (stereo unspecified) | inconclusive: 29.1 µM [inhibitor, single point] |  |
| O=C1Nc2ccccc2C1=Nc1ccccc1-c1ccccc1 | inconclusive: 11.6 µM [inhibitor, partial curve] |  |
| O=C(NNc1nc2c(F)cc(F)cc2s1)C1=COCCO1 | inactive |  |
